Measurements published in PubChem BioAssay AID360 (National Center for Advancing Translational Sciences (NCATS), 2006).
Screen size: about 48,000 compounds; about 550 (1.1%) were called active. Another 4% or so got no clear call; they are omitted. No stated cut-off is given here; in the data, active means potency below about 15 µM; inconclusive means mostly about 16 µM to 33 µM; inactive means weaker than that. This is one part of the list.

Each molecule was assayed against Lysosomal acid glucosylceramidase (Homo sapiens) (UniProt P04062) (assay: Glucocerebrosidase). Settings: purified enzyme, resorufin glucoside fluorescence (screen aimed at inhibitors), 20 min.
Sequence of UniProt P04062 (P04062 whole entry, looked up): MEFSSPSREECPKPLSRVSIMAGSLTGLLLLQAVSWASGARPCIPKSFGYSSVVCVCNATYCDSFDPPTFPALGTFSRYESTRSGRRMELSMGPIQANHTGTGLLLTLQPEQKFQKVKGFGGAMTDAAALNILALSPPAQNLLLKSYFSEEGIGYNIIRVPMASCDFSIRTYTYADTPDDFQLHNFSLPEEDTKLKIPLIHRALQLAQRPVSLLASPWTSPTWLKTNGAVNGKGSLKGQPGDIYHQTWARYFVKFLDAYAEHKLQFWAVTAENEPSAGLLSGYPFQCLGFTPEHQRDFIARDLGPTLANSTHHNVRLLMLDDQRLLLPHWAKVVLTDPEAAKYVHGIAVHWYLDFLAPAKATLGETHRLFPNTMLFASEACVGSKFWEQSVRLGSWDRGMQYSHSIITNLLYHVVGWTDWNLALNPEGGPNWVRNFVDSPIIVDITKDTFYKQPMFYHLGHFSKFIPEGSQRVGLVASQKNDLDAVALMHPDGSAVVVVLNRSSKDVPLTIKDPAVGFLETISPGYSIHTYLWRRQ
How it was run: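 Compounds titrated against 0.2 nM normal enzyme, 30 uM resorufin beta-D-glucopyranoside substrate, citrate/phosphate buffer with taurocholate and tween-20, pH 5.9. Reaction ran 20 min at room temperature; fluorescence (Ex 548/Em 600) gave AC50.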
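Further: the screen sought inhibitors.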
Potency means the concentration at half of the fitted maximal effect.

Potency, active:
Cc1ccc(C)c(N(C(=O)Cn2nnc(-c3cccs3)n2)C(C(=O)NC2CC2)c2ccc(C)o2)c1 (stereo unspecified) 12.1 µM

Potency, inactive:
COCCN1C(=O)C(=O)/C(=C(/O)c2ccc3c(c2)OCCO3)C1c1ccc(C(=O)OC)cc1 (stereo unspecified) > 76.9 µM, CCN1CCCC(OC(=O)Nc2ccccc2)C1 (stereo unspecified) > 76.9 µM, COc1ccc(OC)c(C(c2nnnn2Cc2ccccc2)N2CCN(C3CCCCC3)CC2)c1 (stereo unspecified) > 76.9 µM, CCn1c(-c2ccc(OC)c(OC)c2)n[nH]c1=S > 76.9 µM, COc1ccccc1Oc1nc2c(c(=O)n(Cc3ccccc3F)c(=O)n2C)n1C > 76.9 µM, Cc1ccc(S(=O)(=O)N2CCC(C(=O)NCCCN3CCCCCC3)CC2)cc1 > 76.9 µM, COCCn1c(COc2ccc(Cl)cc2)nnc1SCC(N)=O > 76.9 µM, O=C(OCC(=O)c1ccc[nH]1)c1ccc(S(=O)(=O)N2CCCCC2)cc1 > 76.9 µM, CCOc1nc(N(C)C)nc(-n2nnc(C(C)=O)c2C)n1 > 76.9 µM, COc1ccc(-n2nc(C(=O)Nc3ccc4c(c3)OCO4)c3ccccc3c2=O)cc1 > 76.9 µM, CCCCSc1nnc2nc(C)cc(C)n12 > 76.9 µM, C=CCC(CC=C)(C(=O)O)c1ccccc1 > 76.9 µM, CS(=O)(=O)N1CCN(CC2CC3C=CC2C3)CC1 (stereo unspecified) > 76.9 µM, Cc1nc2ccc(S(=O)(=O)NC(CC(C)C)C(=O)O)cc2s1 (stereo unspecified) > 76.9 µM, Cc1cc(C(=O)CSc2nnc(C3COc4ccccc4O3)n2C)c(C)n1-c1ccc(F)cc1 (stereo unspecified) > 76.9 µM, COCCCn1c(=O)c2ccccc2c2ccccc2c1=O > 76.9 µM, Cc1nc2sc3c(c2c2nnc(SCC(=O)NCc4ccco4)n12)CCCC3 > 76.9 µM, CN1C(=O)c2ccccc2N(C)C1c1ccc2c(c1)OCO2 (stereo unspecified) > 76.9 µM, Cc1ccc([C@@H]2C3COCC=C3C(C#N)=C(N)C2(C#N)C#N)o1 (stereo partly specified), Nc1nc2nonc2nc1N1CCCCC1 > 76.9 µM, O=C(c1ccco1)N1CCN(CC(=O)N2CCCc3c2c(=O)oc2ccc(O)cc32)CC1 > 76.9 µM, CCn1nnnc1NCc1ccc(N2CCCC2)cc1 > 76.9 µM, CCOC(=O)c1cccc(NC(=O)C2CCN(S(=O)(=O)c3cccs3)CC2)c1, CCc1nnc(NC(=O)CSc2nnc3c4ccccc4n(C)c3n2)s1 > 76.9 µM, CCOCCn1c(CN2CCN(c3ccc(F)cc3)CC2)nc2c1c(=O)n(C)c(=O)n2C > 76.9 µM, Cc1cc2ncn(C(=O)N3CCCCC3)c2cc1C > 76.9 µM, Cc1ccc(S(=O)(=O)N2CCC(C(=O)NCCN3CCCCCC3)CC2)cc1 > 76.9 µM, O=C(CSc1nc(-c2ccco2)cc(C(F)(F)F)n1)Nc1ccc2c(c1)CCC2 > 76.9 µM, CC(C)=CC(=O)NCCc1ccccc1 > 76.9 µM, CCN(c1cccc(C(F)(F)F)c1)S(=O)(=O)c1ccc2c(c1)CCN2C(C)=O > 76.9 µM, Cc1cnc(C(=O)Nc2ccc(N3CCOCC3)cc2)cn1 > 76.9 µM, CCOC(=O)c1cnc(-n2nc(C)cc2C)nc1N(C)C > 76.9 µM, Cn1c(CNC(=O)Nc2ccccc2Cl)nnc1SCc1ccccc1 > 76.9 µM, COC(=O)c1[nH]c2cccc(OC)c2c1NC(=O)CCN1CCN(c2cccc(Cl)c2)CC1 > 76.9 µM, COCCNC(=O)c1ccc(Cl)c(Cl)c1 > 76.9 µM, COc1ccc(NC(=O)c2cccc(Cn3cc(Br)cn3)c2)cn1 > 76.9 µM, CCOc1ccc(OCC)c(NC(=O)CCn2c(=O)oc3ccccc32)c1 > 76.9 µM, CC(=O)NC(CC(=O)Nc1ccc(S(=O)(=O)N2CCCC2)cc1)c1ccccc1 (stereo unspecified) > 76.9 µM, CCOc1ccc(-c2cc(CCCC(=O)NCCc3ccc(OC)c(OC)c3OC)no2)cc1 > 76.9 µM, Cc1cc(NS(=O)(=O)c2ccccc2)n(-c2ccccc2)n1 > 76.9 µM, COc1ccc(-c2cc(-c3cccs3)c(C#N)c(SCC(=O)NCc3ccco3)n2)cc1 > 76.9 µM, CCOC(=O)CSc1nnc(CSc2nc(C)cc(C)n2)n1Cc1ccco1 > 76.9 µM, Cc1cc(NC(=O)CCC(=O)N(CC(=O)NC2CCCC2)Cc2ccc(F)cc2)no1 > 76.9 µM, CSc1ccc(/C=N/n2nnnc2N)cc1 > 76.9 µM, CCOC(=O)CC1C(=O)NCCN1C(=O)Nc1ccccc1 (stereo unspecified) > 76.9 µM, Cc1ccc(CN(Cc2cccnc2)C(=O)CN2C(=O)COc3ccccc32)o1 > 76.9 µM, COCC(C)n1c(COc2ccccc2F)nnc1SCc1c(C)noc1C (stereo unspecified) > 76.9 µM, CN(CC(=O)NCc1cccc(F)c1)C(=O)c1ccco1 > 76.9 µM, COC(=O)CSc1nc(N)c(C#N)c(C(C)C)c1C#N > 76.9 µM, O=C(CSc1nccn1-c1ccc(F)cc1)Nc1ccc2c(c1)OCO2 > 76.9 µM, CCOc1ccccc1C(=O)N(Cc1ccco1)C1CCS(=O)(=O)C1 (stereo unspecified) > 76.9 µM, COC(=O)CSc1nsc(SCC(=O)OC)n1 > 76.9 µM, O=C1CCCN1CCC1CCN(C2CC(=O)N(Cc3ccc(N4CCCC4=O)cc3)C2=O)CC1 (stereo unspecified) > 76.9 µM, O=C(Cn1c(C(=O)NCc2ccco2)cc2sccc21)c1ccccc1 > 76.9 µM, O=c1[nH]c(Cn2nnc(-c3ccccc3)n2)nc2scc(-c3ccccc3)c12 > 76.9 µM, Cc1cnc(NC(=O)CSc2nnc(Cc3ccccc3)o2)s1 > 76.9 µM, Cc1cc(=S)cc(C)n1CCCn1ccnc1 > 76.9 µM, CCOC(=O)c1c(NC(=O)c2cccs2)sc(C(=O)N2CCOCC2)c1C > 76.9 µM, COC(=O)CSc1nc(NCC(C)C)nc(N2CCOCC2)n1 > 76.9 µM, Cc1cccnc1NCc1ccc(O)c2ncccc12 > 76.9 µM, COc1ccc(S(=O)(=O)Nc2ccc(C(F)(F)F)cc2)cc1OC > 76.9 µM, COc1ccc(-c2noc(COc3ccc4c(c3)OCO4)n2)cc1OC > 76.9 µM, CC(C)NC(=O)COC(=O)c1ccc(O)cc1 > 76.9 µM, O=C(CCC1CCCCC1)Nc1c[nH]c(=O)[nH]c1=O > 76.9 µM, O=C(CSc1nc2ccccc2c(=O)n1Cc1ccco1)c1ccccc1 > 76.9 µM, Cc1ccccc1-c1nnc(SCc2ccccc2)o1 > 76.9 µM, Cc1cc(=O)n2nc(N3CCCC(C(=O)NCCCN4CCc5ccccc5C4)C3)sc2n1 (stereo unspecified) > 76.9 µM, COC(=O)c1ccc2c(=O)[nH]c(CN3c4ccccc4CC3C)nc2c1 (stereo unspecified) > 76.9 µM, Cc1cc(NC(=O)c2cccnc2)ccc1NC(=O)c1ccco1 > 76.9 µM, O=C(O)CSc1ncn[nH]1 > 76.9 µM, CCOc1ccccc1-c1cc(-c2ccc(OC)cc2)nc2c1c(=O)n(C)c(=O)n2C > 76.9 µM, O=C(NC1CCCC1)c1cnn2c(C(F)(F)F)cc(-c3ccc4c(c3)OCO4)nc12 > 76.9 µM, O=C(NC1CCC(NC(=O)C2CCCO2)CC1)C1CCCO1 (stereo unspecified) > 76.9 µM, Cc1c(C)c2ccc(OCc3ccc(C(=O)O)o3)c(C)c2oc1=O > 76.9 µM, Cc1ccc(S(=O)(=O)N2CCC(C(=O)N[C@@H](C)C(=O)NC3CCCCC3)CC2)cc1 > 76.9 µM, CCn1c(C(O)c2ccc3c(c2)OCO3)nc2ccccc21 (stereo unspecified) > 76.9 µM, CCOc1ccccc1NC(=O)CSc1c(C)n[nH]c1C > 76.9 µM, Cc1ccc(CNC(=O)c2ccc(Cn3nc(C)c(Cl)c3C)o2)cc1 > 76.9 µM, COCCn1c(C)cc2c(c1=O)C(c1ccccc1F)C(C#N)=C(N)O2 (stereo unspecified) > 76.9 µM, O=C(Nc1ccc(Cl)cc1)N1CCSCC1 > 76.9 µM, Cc1cnc(C(=O)OCC(=O)Nc2cccc(Cl)c2)cn1 > 76.9 µM, CC1(C)CC(NS(=O)(=O)c2ccc(S(=O)(=O)N3CCOCC3)cc2)CCO1 (stereo unspecified) > 76.9 µM, Cc1nc2c(C(=O)NCCC3=CCCCC3)c[nH]n2c(=O)c1Cl > 76.9 µM, Oc1ccc2c(c1)oc1cc(O)ccc12 > 76.9 µM, CCCS(=O)(=O)N1CCCC(C(=O)N2CCN(c3ccccc3)CC2)C1 (stereo unspecified) > 76.9 µM, O=S(=O)(Nc1nc2ccccc2nc1Nc1ccc2c(c1)OCCO2)c1cccs1 > 76.9 µM, CCOC(=O)CSc1nc2ccccc2n2cnnc12 > 76.9 µM, CCCn1c(SCC(=O)Nc2nnc(-c3ccccc3)s2)nnc1-c1ccccn1 > 76.9 µM, CCOC(=O)C1=C(c2ccccc2)OC(N)=C(C#N)C1c1ccco1 (stereo unspecified) > 76.9 µM, Cc1ccc(CNC(=O)C2C3C=CC4(CN(Cc5cccnc5)C(=O)C24)O3)cc1 (stereo unspecified) > 76.9 µM
